Over roughly 33,000 sequences, “E-score (-0.5 to 0.5)” has its median near -0.035; the highest 2% begin near 0.35. Some of the results follow.
Molecular target: T1, Pdr3 (UniProt P33200)
T1 sequence: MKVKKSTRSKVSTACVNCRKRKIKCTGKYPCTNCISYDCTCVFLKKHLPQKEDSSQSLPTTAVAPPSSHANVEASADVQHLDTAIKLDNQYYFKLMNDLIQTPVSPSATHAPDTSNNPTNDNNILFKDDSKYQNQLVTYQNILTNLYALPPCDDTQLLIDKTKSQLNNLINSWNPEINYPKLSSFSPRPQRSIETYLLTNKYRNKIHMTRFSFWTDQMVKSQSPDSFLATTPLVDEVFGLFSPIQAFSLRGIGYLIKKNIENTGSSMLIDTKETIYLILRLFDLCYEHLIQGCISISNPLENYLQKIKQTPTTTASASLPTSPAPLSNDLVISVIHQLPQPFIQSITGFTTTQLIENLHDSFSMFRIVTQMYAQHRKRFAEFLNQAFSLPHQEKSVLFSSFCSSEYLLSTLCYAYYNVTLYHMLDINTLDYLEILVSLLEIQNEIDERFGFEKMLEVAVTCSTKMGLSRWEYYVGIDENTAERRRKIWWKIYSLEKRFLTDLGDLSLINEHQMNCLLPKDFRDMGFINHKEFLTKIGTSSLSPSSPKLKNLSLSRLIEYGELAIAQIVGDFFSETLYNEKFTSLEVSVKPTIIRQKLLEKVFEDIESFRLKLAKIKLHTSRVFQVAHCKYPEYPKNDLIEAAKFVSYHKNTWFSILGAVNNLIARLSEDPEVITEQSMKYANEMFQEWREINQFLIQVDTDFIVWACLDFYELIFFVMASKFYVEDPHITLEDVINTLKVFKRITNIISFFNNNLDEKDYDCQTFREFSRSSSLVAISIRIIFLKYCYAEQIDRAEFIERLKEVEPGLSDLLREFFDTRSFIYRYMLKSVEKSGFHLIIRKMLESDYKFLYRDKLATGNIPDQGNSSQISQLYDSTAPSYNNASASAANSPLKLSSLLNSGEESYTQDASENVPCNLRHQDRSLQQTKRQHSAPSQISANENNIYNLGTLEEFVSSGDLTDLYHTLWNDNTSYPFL
Experiment: PBM E-score (8-mer binding enrichment) (E-score (-0.5 to 0.5)); higher = stronger / more preferred TF binding; most listed sequences are background and not binding sites
Details: protein concentration: 200 nM; construct: GST-full length
Procedure: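 Universal 'all 10-mer' protein binding microarrays (Agilent AMADID 015681) probed with GST-tagged S. cerevisiae TFs (full-length or DBD) made by in vitro transcription/translation (PURExpress), about 100-200 nM. Bound TF was detected with fluorescent anti-GST. Each ungapped 8-mer (which stands for itself and its reverse complement) is scored by the PBM enrichment score (E-score), a modified Wilcoxon-Mann-Whitney statistic from -0.5 to +0.5, computed with the Universal PBM Analysis Suite. Scale: above 0.35 generally sequence-specific binding.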

| Sequence | PBM E-score |
| --- | --- |
| GAGTTGAA | -0.114 |
| CGCACGCG | 0.0996 |
| GAATGGGC | 0.186 |
| ACTAAAGG | -0.189 |
| ATTCACAA | 0.0868 |
| CCCCTTCC | 0.136 |
| ATCGGTGG | -0.0892 |
| ATCCGATG | 0.248 |
| CAGAGCAC | 0.0407 |
| GGGGGCAC | -0.172 |
| GATCTGGC | 0.0446 |
| CCCATCAA | -0.05 |
| TGCTGCCA | -0.11 |
| CACCTTCC | 0.103 |
| ATTCCACA | 0.204 |
| AAAGTCTA | -0.209 |
| GAGAACAA | 0.126 |
| ACTGACGC | -0.328 |
| AGGACTTG | -0.156 |
| GCGAAGGA | -0.0237 |
| GTATAGGA | -0.334 |
| GCCCCAGC | 0.0198 |

| Sequence | PBM E-score |
| --- | --- |
| AAGTTCCC | 0.14 |
| GGTTCCAC | 0.0683 |
| CGCCCGGA | 0.396 |
| CACTGCAA | -0.00781 |
| CCATAAGG | -0.378 |
| TAAGGTCA | -0.258 |
| AATCGGCG | 0.122 |
| ACGTCGCT | -0.0789 |
| ACGTAGAA | -0.0808 |
| TGAATCAA | 0.187 |
| ATCATCTC | 0.131 |
| GTTCAACA | 0.0276 |
| AAACACCA | -0.176 |
| ACGGCCCA | -0.0128 |
| AGTTTCCG | 0.452 |
| CAGTCTAG | -0.304 |
| ATTGGGCA | -0.131 |
| CTAGGTCA | -0.289 |
| ATCGCTGG | 0.0359 |
| GATGCAGA | -0.0128 |
| CTAACGAG | -0.0664 |
| CCTGAACG | 0.0206 |

| Sequence | PBM E-score |
| --- | --- |
| CCAACCGA | 0.0531 |
| AGGCCCCA | -0.0982 |
| ACCCCTAA | -0.0694 |
| ACAAAGGT | -0.151 |
| ACAAACGT | -0.179 |
| ACACACAA | -0.0133 |
| CGAGCGCC | 0.0241 |
| CGAGGACC | -0.0343 |
| AGCTGAGG | -0.197 |
| CCGGTTCG | 0.217 |
| AGCCATGC | -0.014 |
| AGATGGGG | -0.176 |
| AACTTAGA | -0.11 |
| ACGAGCGT | -0.222 |
| CGTCTGGA | -0.183 |
| AGCTCACA | -0.0998 |
| CACTAGAC | -0.00252 |
| ACTGCTAA | -0.221 |
| ATAGTGCA | 0.0132 |
| GGATCCTA | 0.115 |
| AGCTTTAT | -0.248 |
| AAATAGCA | -0.193 |

| Sequence | PBM E-score |
| --- | --- |
| GACATTGA | 0.155 |
| CCATCCAG | -0.116 |
| CTCGCGGA | 0.265 |
| ATTTCCAA | -0.113 |
| ATGTCGGG | 0.142 |
| CAGATCGA | -0.162 |
| AGGCCGAG | 0.193 |
| TGGCTGAA | -0.118 |
| GCACGAAC | 0.00062 |
| GGAATCAC | 0.251 |
| CCATCTAA | -0.0762 |
| AGAGCACG | -0.0259 |
| AACACTAA | -0.125 |
| AACAACTG | 0.00536 |
| GGAAATGA | 0.214 |
| GATAAGGA | 0.00205 |
| AATCACGT | 0.0816 |
| CGCTAGCA | -0.126 |
| ATAATGCC | 0.205 |
| TACTCTGA | -0.188 |

Reference: the supplement of paper PMC3334620
